# Some of the results follow.
# How the values were obtained:
# Assay in all cases: glycan array binding signal (z-score within array); higher = stronger binding
# Settings in all cases: glycan notation: IUPAC condensed, linker removed
# [1] = biological target: Gal(b1-4)GlcNAc(b1-2)Man(a1-3)[Gal(b1-4)GlcNAc(b1-2)Man(a1-6)]Man(b1-4)GlcNAc(b1-4)GlcNAc
# In short: (§1)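 Negative Z-scores can be read as non-binding. The Z-score is calculated within each array and then averaged across arrays of one protein sequence at different concentrations or buffers and across linkers. Arrays, 3228 in all, were curated from the Consortium for Functional Glycomics database and kept only where the protein sequence was available.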
# [2] = biological target: Gal(b1-4)GlcNAc(b1-2)Man(a1-3)[Gal(b1-4)GlcNAc(b1-2)Man(a1-6)]Man(b1-4)GlcNAc(b1-4)[Fuc(a1-6)]GlcNAc
# In short: as §1
# [3] = biological target: Gal(b1-4)GlcNAc(b1-2)Man(a1-3)[Gal(b1-4)GlcNAc(b1-2)][GlcNAc(b1-4)]Man(b1-4)GlcNAc(b1-4)GlcNAc
# In short: as §1
# [4] = biological target: Gal(b1-4)GlcNAc(b1-2)Man(a1-3)[GlcNAc(b1-2)Man(a1-6)]Man(b1-4)GlcNAc(b1-4)GlcNAc
# In short: as §1
# [5] = biological target: Gal(b1-4)GlcNAc(b1-2)Man(a1-3)[Man(a1-6)]Man(b1-4)GlcNAc(b1-4)GlcNAc
# In short: as §1
# [6] = biological target: Gal(b1-4)GlcNAc(b1-2)Man(a1-6)Man(b1-4)GlcNAc(b1-4)GlcNAc
# In short: as §1
# [7] = biological target: Gal(b1-4)GlcNAc(b1-2)Man(a1-6)[GlcNAc(b1-2)Man(a1-3)]Man(b1-4)GlcNAc(b1-4)GlcNAc
# In short: as §1
# [8] = biological target: Gal(b1-4)GlcNAc(b1-2)Man(a1-6)[Man(a1-3)]Man(b1-4)GlcNAc(b1-4)GlcNAc
# In short: as §1
# [9] = biological target: Gal(b1-4)GlcNAc(b1-2)[Gal(b1-4)GlcNAc(b1-4)]Man(a1-3)[Gal(b1-4)GlcNAc(b1-2)Man(a1-6)]Man(b1-4)GlcNAc(b1-4)GlcNAc
# In short: as §1
# [10] = biological target: Gal(b1-4)GlcNAc(b1-2)[Gal(b1-4)GlcNAc(b1-4)]Man(a1-3)[Gal(b1-4)GlcNAc(b1-2)[Gal(b1-4)GlcNAc(b1-6)]Man(a1-6)]Man(b1-4)GlcNAc(b1-4)GlcNAc
# In short: as §1
# [11] = biological target: Gal(b1-4)GlcNAc(b1-2)[Gal(b1-4)GlcNAc(b1-4)]Man(a1-3)[GlcNAc(b1-4)][Gal(b1-4)GlcNAc(b1-2)Man(a1-6)]Man(b1-4)GlcNAc(b1-4)GlcNAc
# In short: as §1
# [12] = biological target: Gal(b1-4)GlcNAc(b1-2)[Gal(b1-4)GlcNAc(b1-4)]Man(a1-3)[GlcNAc(b1-4)][Gal(b1-4)GlcNAc(b1-2)[Gal(b1-4)GlcNAc(b1-6)]Man(a1-6)]Man(b1-4)GlcNAc(b1-4)GlcNAc
# In short: as §1
# [13] = biological target: Gal(b1-4)GlcNAc(b1-2)[Gal(b1-4)GlcNAc(b1-6)]Man(a1-6)[Gal(b1-4)GlcNAc(b1-2)Man(a1-3)]Man(b1-4)GlcNAc(b1-4)GlcNAc
# In short: as §1
# [14] = biological target: Gal(b1-4)GlcNAc(b1-2)[Gal(b1-4)GlcNAc(b1-6)]Man(a1-6)[GlcNAc(b1-4)][Gal(b1-4)GlcNAc(b1-2)Man(a1-3)]Man(b1-4)GlcNAc(b1-4)GlcNAc
# In short: as §1
# [15] = biological target: Gal(b1-4)GlcNAc(b1-3)Gal(b1-3)GlcNAc
# In short: as §1
# [16] = biological target: Gal(b1-4)GlcNAc(b1-3)Gal(b1-4)Glc
# In short: as §1
# [17] = biological target: Gal(b1-4)GlcNAc(b1-3)Gal(b1-4)GlcNAc
# In short: as §1
# [18] = biological target: Gal(b1-4)GlcNAc(b1-3)Gal(b1-4)GlcNAc(b1-3)Gal(b1-4)GlcNAc
# In short: as §1
# [19] = biological target: Gal(b1-4)GlcNAc(b1-3)Gal(b1-4)[Fuc(a1-3)GlcNAc(b1-6)]Gal(b1-4)Glc
# In short: as §1
# [20] = biological target: Gal(b1-4)GlcNAc(b1-3)Gal(b1-4)[Fuc(a1-3)]GlcNAc(b1-3)Gal(b1-4)[Fuc(a1-3)]GlcNAc
# In short: as §1
# [21] = biological target: Gal(b1-4)GlcNAc(b1-3)GalNAc
# In short: as §1
# [22] = biological target: Gal(b1-4)GlcNAc(b1-3)[Gal(b1-4)GlcNAc(b1-6)]Gal(b1-4)GlcNAc
# In short: as §1
# [23] = biological target: Gal(b1-4)GlcNAc(b1-3)[Gal(b1-4)GlcNAc(b1-6)]GalNAc
# In short: as §1
# [24] = biological target: Gal(b1-4)GlcNAc(b1-3)[GlcNAc(b1-6)]Gal(b1-4)GlcNAc
# In short: as §1
# [25] = biological target: Gal(b1-4)GlcNAc(b1-6)Gal(b1-4)GlcNAc
# In short: as §1
# [26] = biological target: Gal(b1-4)GlcNAc(b1-6)GalNAc
# In short: as §1
# [27] = biological target: Gal(b1-4)GlcNAc(b1-6)[Gal(b1-3)]GalNAc
# In short: as §1
# [28] = biological target: Gal(b1-6)Gal
# In short: as §1
# [29] = biological target: Gal3S(b1-3)GalNAc
# In short: as §1
# [30] = biological target: Gal3S(b1-3)GlcNAc
# In short: as §1
# [31] = biological target: Gal3S(b1-3)[Fuc(a1-4)]GlcNAc
# In short: as §1
# [32] = biological target: Gal3S(b1-4)Glc
# In short: as §1
# [33] = biological target: Gal3S(b1-4)Glc6S
# In short: as §1
# [34] = biological target: Gal3S(b1-4)GlcNAc
# In short: as §1
# [35] = biological target: Gal3S(b1-4)GlcNAc6S
# In short: as §1
# [36] = biological target: Gal3S(b1-4)[Fuc(a1-3)]Glc
# In short: as §1
# [37] = biological target: Gal3S(b1-4)[Fuc(a1-3)]Glc6S
# In short: as §1
# [38] = biological target: Gal3S4S(b1-4)GlcNAc
# In short: as §1
# [39] = biological target: Gal3S6S(b1-4)GlcNAc
# In short: as §1
# [40] = biological target: Gal3S6S(b1-4)GlcNAc6S
# In short: as §1
# [41] = biological target: Gal4S(b1-4)GlcNAc
# In short: as §1
# [42] = biological target: Gal4S6S(b1-4)GlcNAc
# In short: as §1
# [43] = biological target: Gal6S(b1-3)GlcNAc
# In short: as §1
# [44] = biological target: Gal6S(b1-3)GlcNAc6S
# In short: as §1
# [45] = biological target: Gal6S(b1-4)Glc
# In short: as §1
binder,measurement,setting,value
XCL (Xerocomus chrysenteron) (protein) MSYSITLRVYQTNRDRGYFSIVEKTVWHFANGGTWSEANGAHTLTQGGSGTSGVLRFLSTKGERITVAVGVHNYKRWCDVVTGLKPDETALVINPQYYNNGGRDYVREKQLAEYSVTSAIGTKVEVVYTVAEGNNLEANVIFS,glycan array binding signal (z-score),[1],-0.32
same,glycan array binding signal (z-score),[2],-0.32
same,glycan array binding signal (z-score),[3],-0.321
same,glycan array binding signal (z-score),[4],1.04
same,glycan array binding signal (z-score),[5],-0.272
same,glycan array binding signal (z-score),[6],-0.295
same,glycan array binding signal (z-score),[7],1.04
same,glycan array binding signal (z-score),[8],-0.316
same,glycan array binding signal (z-score),[9],-0.298
same,glycan array binding signal (z-score),[10],-0.324
same,glycan array binding signal (z-score),[11],-0.322
same,glycan array binding signal (z-score),[12],-0.324
same,glycan array binding signal (z-score),[13],-0.308
same,glycan array binding signal (z-score),[14],-0.315
same,glycan array binding signal (z-score),[15],-0.314
same,glycan array binding signal (z-score),[16],-0.299
same,glycan array binding signal (z-score),[17],-0.311
same,glycan array binding signal (z-score),[18],-0.287
same,glycan array binding signal (z-score),[19],-0.311
same,glycan array binding signal (z-score),[20],-0.258
same,glycan array binding signal (z-score),[21],0.082
same,glycan array binding signal (z-score),[22],-0.331
same,glycan array binding signal (z-score),[23],-0.282
same,glycan array binding signal (z-score),[24],-0.216
same,glycan array binding signal (z-score),[25],-0.324
same,glycan array binding signal (z-score),[26],-0.271
same,glycan array binding signal (z-score),[27],1.2
same,glycan array binding signal (z-score),[28],-0.322
same,glycan array binding signal (z-score),[29],3.44
same,glycan array binding signal (z-score),[30],-0.319
same,glycan array binding signal (z-score),[31],-0.322
same,glycan array binding signal (z-score),[32],-0.269
same,glycan array binding signal (z-score),[33],-0.29
same,glycan array binding signal (z-score),[34],-0.311
same,glycan array binding signal (z-score),[35],-0.315
same,glycan array binding signal (z-score),[36],-0.313
same,glycan array binding signal (z-score),[37],-0.273
same,glycan array binding signal (z-score),[38],-0.327
same,glycan array binding signal (z-score),[39],-0.308
same,glycan array binding signal (z-score),[40],-0.308
same,glycan array binding signal (z-score),[41],-0.317
same,glycan array binding signal (z-score),[42],-0.328
same,glycan array binding signal (z-score),[43],-0.278
same,glycan array binding signal (z-score),[44],-0.321
same,glycan array binding signal (z-score),[45],-0.315

# — the supplement of paper PMC8728848
